Binding signal data for 109 sequences are collected here from publication PMC5836133.

This is one part of the list. At the low end of the ranking, values are background and their order means little.

The subject of this test is T1, GST-NbGlk1(82-244).
T1 sequence: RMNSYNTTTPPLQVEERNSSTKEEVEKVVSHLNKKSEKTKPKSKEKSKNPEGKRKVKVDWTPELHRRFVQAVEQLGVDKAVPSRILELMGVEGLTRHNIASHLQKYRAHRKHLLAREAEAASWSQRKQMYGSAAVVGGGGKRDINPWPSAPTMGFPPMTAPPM
Nature of the test: protein-binding microarray.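 Note: rank-based score ranging −0.5 to +0.5 with E above 0.45 taken as significant binding.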 To be noted: NbGlk1 is a Golden2-like transcription factor of Nicotiana benthamiana; high values mean tight binding; most listed sequences are background and not binding sites; double strand, one strand shown.
CACTTCGC came in with a binding signal of -0.059 E-score.

On to AGTTCTAT, for which the binding signal was -0.0741 E-score.

Sequence AGGCGTGA came in with a binding signal of -0.0249 E-score.

In turn, AACTTCCG gave a binding signal of -0.0642 E-score.

AAGATCTC registered a binding signal of 0.406 E-score.

In the case of AGCAGGCC, the binding signal was -0.302 E-score.

Sequence AGCTATTC yielded a binding signal of -0.148 E-score.

ATTAGCAC: the binding signal is -0.0208 E-score.

Sequence ACGCTACC returned a binding signal of -0.109 E-score.

Consider AAAGTTTC, for which the binding signal was -0.0739 E-score.

CAAAATCG came in with a binding signal of 0.386 E-score.

ACAGTCTA registered a binding signal of 0.00924 E-score.

For the sequence ATTAACCA, the binding signal was -0.0174 E-score.

Regarding CAGATTCA, the binding signal was found to be 0.293 E-score.

ATACGTAT showed a binding signal of 0.194 E-score.

The sequence AAACCGCT displayed a binding signal of -0.224 E-score.

Sequence ACAACCCT came in with a binding signal of -0.196 E-score.

Sequence ACCCGGCG gave a binding signal of -0.243 E-score.

In the case of AGAAGTTA, the binding signal worked out at 0.0625 E-score.

Turning to AATGTGAA, the binding signal is 0.182 E-score.

In turn, AGGTTCGA had a binding signal of -0.00234 E-score.

As for CAAACTCC, the binding signal was -0.175 E-score.

With ATCTCCAT, the binding signal was determined as 0.335 E-score.

Sequence AAGAGGGC registered a binding signal of -0.243 E-score.

Sequence AATATGGC showed a binding signal of 0.176 E-score.

Consider AGGACCAG, for which the binding signal was -0.295 E-score.

ATAACTAA registered a binding signal of -0.0585 E-score.

Turning to AGTCTTCC, the binding signal was -0.00747 E-score.

For ATACGGGG, the binding signal is -0.0135 E-score.

ACGGCCCC returned a binding signal of -0.108 E-score.

Regarding ATCGAAGC, the binding signal stood at 0.095 E-score.

In turn, ACCTACCT had a binding signal of -0.278 E-score.

In the case of ACGGGCAA, the binding signal is -0.0399 E-score.

Turning to AATGCGGG, the binding signal was -0.0897 E-score.

Sequence ACCTTCAT displayed a binding signal of 0.0193 E-score.

For the sequence AGGGTGCC, the binding signal was -0.33 E-score.

AGTATTTA gave a binding signal of 0.0837 E-score.

ACAACTAC displayed a binding signal of 0.101 E-score.

Regarding ATCGCGCC, the binding signal amounted to 0.283 E-score.

The sequence ACGGGGTG returned a binding signal of -0.198 E-score.

Consider AAGACTAT, for which the binding signal was -0.0294 E-score.

ACTACTCT: the binding signal came out at 0.0252 E-score.

AAATCGCG registered a binding signal of 0.425 E-score.

The sequence ACCTCACT yielded a binding signal of -0.179 E-score.

For ACTGGTGG, the binding signal is -0.23 E-score.

ACAAAACC had a binding signal of 0.0863 E-score.

As for AGCCGCGA, the binding signal is -0.00167 E-score.

Consider ACACCGTC, for which the binding signal was -0.21 E-score.

AGAGGCAG came in with a binding signal of -0.241 E-score.

As to ATGAAGGA, the binding signal was 0.082 E-score.

ATAATAAC registered a binding signal of 0.129 E-score.

As to ACGTAAGG, the binding signal was -0.146 E-score.

For ACAGGGAA, the binding signal was found to be 0.142 E-score.

AGGGGAGG: the binding signal is -0.151 E-score.

Turning to ATAGAAAC, the binding signal was -0.0892 E-score.

Take AATTCAGA: the binding signal is 0.186 E-score.

Consider AGTGACAG, for which the binding signal was -0.071 E-score.

Regarding AGCTACAT, the binding signal is -0.0735 E-score.

As to CACTTTCG, the binding signal was -0.0509 E-score.

Sequence AACATTGT registered a binding signal of -0.126 E-score.

AACCCTAT registered a binding signal of -0.169 E-score.

With AGTGCAAT, the binding signal is 0.238 E-score.

Sequence ACCGATGC displayed a binding signal of -0.0953 E-score.

As to ACCAGGAA, the binding signal was -0.0883 E-score.

Sequence ACGCGCGG came in with a binding signal of -0.0389 E-score.

ACACCAAG had a binding signal of -0.162 E-score.

Sequence ATTCCTGA displayed a binding signal of 0.169 E-score.

Consider AAAAGAAG, for which the binding signal was -0.0861 E-score.

For AGAATCTG, the binding signal was found to be 0.479 E-score.

For the sequence AAGCTCTG, the binding signal is -0.281 E-score.

For the sequence CACCTGGC, the binding signal was -0.21 E-score.

AGTGCTAT displayed a binding signal of -0.00384 E-score.

ACACTTTG returned a binding signal of -0.0137 E-score.

For the sequence ACTCAAAA, the binding signal was found to be 0.174 E-score.

Consider ACGAACAC, for which the binding signal was -0.0229 E-score.

As to ACCCCGCC, the binding signal is -0.221 E-score.

The sequence ATATGGCC gave a binding signal of -0.0757 E-score.

AAATGGGA returned a binding signal of -0.0906 E-score.

AAAGACTC showed a binding signal of -0.126 E-score.

Turning to ATTCCATA, the binding signal came to 0.257 E-score.

The sequence ACTGAGAT showed a binding signal of 0.247 E-score.

Consider CACCTCCG, for which the binding signal is -0.131 E-score.

Take CAACCTAG: the binding signal was -0.178 E-score.

Consider AAGCGATA, for which the binding signal was 0.157 E-score.

Turning to AACACCCA, the binding signal was -0.08 E-score.

AAGACCTA returned a binding signal of -0.147 E-score.

For AGTGCGCG, the binding signal is -0.0343 E-score.

With AATGCCGA, the binding signal was -0.0346 E-score.

In turn, AGCTTGAC yielded a binding signal of -0.215 E-score.

ACAGCAAC displayed a binding signal of -0.0327 E-score.

For the sequence AAATCCAC, the binding signal was determined as 0.43 E-score.

Sequence CAAATGGG registered a binding signal of -0.0083 E-score.

As for ACCAGCAG, the binding signal was -0.202 E-score.

Sequence ATGCCGAA came in with a binding signal of 0.0265 E-score.

CACTAGGG yielded a binding signal of -0.132 E-score.

In the case of CAATGGGA, the binding signal was -0.00746 E-score.

Take AATATTCC: the binding signal amounted to 0.341 E-score.

AACTTGTA returned a binding signal of 0.0657 E-score.

Sequence CACTGGCC gave a binding signal of -0.223 E-score.

In turn, ACCAATCT showed a binding signal of 0.171 E-score.

Sequence AATAGTTC gave a binding signal of -0.0151 E-score.

ATCCCCGA yielded a binding signal of 0.284 E-score.

As for AGAGCGCG, the binding signal was -0.0775 E-score.

The sequence ATAGTTAG had a binding signal of 0.115 E-score.

AGGCCTGG: the binding signal was -0.223 E-score.

Sequence CAGACACA showed a binding signal of -0.123 E-score.

Sequence AGTGTCTG registered a binding signal of -0.049 E-score.

Turning to ACTGCAGT, the binding signal is -0.102 E-score.

Turning to ACCTGCAT, the binding signal stood at 0.0605 E-score.
